# Data reported in PubChem BioAssay AID686979 (National Center for Advancing Translational Sciences (NCATS), 2013).
# Values joined by “and” are separate entries in the source; they are usually repeats but may differ in a detail not shown here. Identical values can stand only once. The whole screen tested about 420,000 compounds, of which about 50,000 (12%) were called active. Inconclusive results, whose numbers are uncertain, are shown with a selection of clear calls. Calls come from the whole dose curve; as a rule, active = well fitted inhibition curve with a large enough effect; inconclusive = small, poorly fitted or top-dose-only effect; inactive = flat fitted curve, though single readings scatter. No potency is given beside an inconclusive call; the fits are too rough.
# Assay: qHTS for Inhibitors of human tyrosyl-DNA phosphodiesterase 1 (TDP1): qHTS in cells in presence of CPT; note: nearly all actives have a fitted effect of over 55% in size
# Details: chicken DT40 Tdp1-/-;hTDP1 cells + 20 nM CPT, ATP luminescence, 48 h; activity change, negative = growth inhibition: at 46.2 µM (top of the series) unless noted
# Procedure, shortened: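 Cell growth measured by CellTiter-Glo luminescence after a minimum 48 h, 37 C compound exposure with 20 nM CPT in Tdp1-knockout DT40 cells stably expressing hTDP1, seeded 400/well; qHTS titration format.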
# % is set by controls: 0 for no effect and ±100 for the full control effect; potency is the fitted concentration of half-maximal effect; tags give direction and shape of the fitted curve.
SMILES,Potency,"activity change, negative = growth inhibition"
COC(=O)C1(C(=O)OC)C/C=C\CN(S(=O)(=O)c2ccccc2[N+](=O)[O-])CC1,inactive,
O=C(C[C@H]1C[C@H](C(=O)N2CCOCC2)[C@@]2(CCC3CCCC3)c3[nH]c4ccc(Cl)cc4c3CCN2C1=O)NCC12CC3CC(CC(C3)C1)C2,active: 16.4 µM,
CCOc1ccc(CCNC(=O)C2CC=CCC2C(=O)OC(C)C)cc1OCC (configuration not stated),,inconclusive: -30.6% [inhibitor]
CCCCn1c(=S)[nH]c2cc(S(=O)(=O)N3CCOCC3)ccc21,"inconclusive [inhibitor, single point]",
COC(=O)c1c(NC(=O)C2(C)Cc3ccccc3C(=O)O2)sc2c1CCCC2 (configuration not stated),"inconclusive [inhibitor, partial curve]",
O=C(C[N+]1(c2ccccc2)CCOCC1)c1ccccc1,"inconclusive [inhibitor, single point]",
Cc1ccc(C(=O)Nc2ccc(S(=O)(=O)NCc3ccco3)cc2)cc1,"inconclusive [inhibitor, single point]",
Fc1ccccc1N1CCN(C(c2ccnc3ccccc23)c2nnnn2-c2ccc3c(c2)OCCO3)CC1 (configuration not stated),"inconclusive [inhibitor, single point]",
O=C1CC(N2CCN(CCc3ccccn3)CC2)C(=O)N1c1ccc(Cl)cc1 (configuration not stated),"inconclusive [inhibitor, single point]",
Cc1ccc(C)c(NC(=O)c2ccc3c(c2)CCN3S(=O)(=O)c2ccccc2)c1,"inconclusive [inhibitor, partial curve]",
CCC(Sc1nc2ncccc2o1)C(=O)Nc1cccc(C)c1 (configuration not stated),inactive,
COc1ccc(NC(=O)CSc2n[nH]c(-c3ccco3)n2)cc1,"inconclusive [inhibitor, single point]",
COc1cc(-c2nnc(COC(=O)c3ccc([N+](=O)[O-])o3)o2)cc(OC)c1OC,"inconclusive [inhibitor, single point]",
COC(=O)c1cc(NC(=O)c2cccc(C(F)(F)F)c2)c(=O)oc1C/C=N/OCc1cccc(Cl)c1Cl,"inconclusive [inhibitor, single point]",
COc1ccc(C2SCCN2C(=S)Nc2ccc(Cl)cc2)cc1 (configuration not stated),inactive,
O=C(NNC(=O)c1ccc(Br)s1)c1ccc(F)c(S(=O)(=O)N2CCOCC2)c1,"inconclusive [inhibitor, single point]",
CC(C)c1ccc(C(C)NC(=O)C2CCCC2)cc1 (configuration not stated),inactive,
O=C(Nc1ccc(Cl)c(C(F)(F)F)c1)C(Cc1ccccc1)NS(=O)(=O)c1cccc2nsnc12 (configuration not stated),"inconclusive [inhibitor, single point]",
CCN(C[C@H]1N[C@@](Cc2ccccc2)(C(=O)OC)[C@H]2C(=O)N(Cc3ccccc3)C(=O)[C@@H]12)S(=O)(=O)c1ccc(C)cc1,active: 16.4 µM,
O=C(COc1ccc(Cl)cc1)NCc1ccc(F)cc1,"inconclusive [inhibitor, partial curve]",
Cc1ccc2[nH]c(=O)c(CN(C(=O)c3cccc([N+](=O)[O-])c3)C(C)(C)C)cc2c1,"inconclusive [inhibitor, single point]",
CCCOc1ccc(NC(=O)CC2C(=O)Nc3ccccc3N2CC(=O)N2CCCC2)cc1 (configuration not stated),"inconclusive [inhibitor, single point]",
Nc1cccc(N=[N+]([O-])c2cccc(N)c2)c1,"inconclusive [inhibitor, full curve]",

SMILES,Potency,"activity change, negative = growth inhibition"
CNCCN(C)c1nc(-c2cccs2)nc2ccccc12,"inconclusive [inhibitor, single point]",
OC(CNCc1cccc(Cl)c1)c1ccccc1 (configuration not stated),inactive,
CC(C)(C)c1ccc(NC(=O)c2ccsc2)cc1,"inconclusive [inhibitor, single point]",
CC1CC(C)CN(C(=O)CCc2nnc3ccc(N4CCCCC4)nn23)C1 (configuration not stated),"inconclusive [inhibitor, single point]",
O=C(NCc1ccco1)c1ccc(-c2ccc3nccn3c2)cc1,active: 23.1 µM,
O=C(COc1ccccc1/C=C\c1nc(O)c([N+](=O)[O-])c(=O)[nH]1)Nc1ccccc1,inactive,
Cc1ccc(-c2nc3cc(C)c(Br)c(C)n3c2CC(C)(C)C)cc1,active: 9.2 µM,
COc1ccccc1C(=O)Nc1ccnn1C1CCN(C/C=C/c2ccc(F)cc2)CC1,"inconclusive [inhibitor, partial curve, poor fit]",
CCOc1ccc(N=C2SC(C(=O)Nc3ccccc3C#N)C(N)=C2C(=O)Nc2ccc(Cl)cc2)cc1 (configuration not stated),inactive,
O=C(Cn1c(=O)oc2ccccc21)Nc1cccc(Cl)c1,"inconclusive [inhibitor, partial curve, poor fit]",
CCOc1ccc(NC(=O)C2CCCN2S(=O)(=O)c2ccc3c(c2)C(C)(C)C(=O)N3C)cc1 (configuration not stated),"inconclusive [inhibitor, single point]",
O=C(NC1CCCCC1)N1CCCCCCC1,"inconclusive [inhibitor, single point]",
COc1ccc(C(=O)N2CCC3(CC2)CCN(c2ccccn2)CC3)cc1,"inconclusive [inhibitor, single point]",
CCCc1nc2ccccc2c(C(=O)OCC(=O)Nc2cccc(S(=O)(=O)N3CCOCC3)c2)c1CC,active: 11.6 µM,
CC(=O)c1c(C)oc2ccc(NS(=O)(=O)c3cccs3)cc12,,inconclusive: -34.7% [inhibitor]
O=C1C=CC(=O)N1c1cccc(-c2ccccc2)c1,active: 0.651 µM,
CCCCN1CC(COCc2ccccc2)Oc2cccc(OCc3ccc(OC)cc3)c2S1(=O)=O (configuration not stated),active: 5.8 µM,
CCCCN=c1sc(C(=O)OC)cc(=O)n1CCCC,"inconclusive [inhibitor, single point]",
CCOc1ccccc1/C=N/NC(=O)c1nnn(-c2nonc2N)c1CN1CCC(C)CC1,"inconclusive [inhibitor, single point]",
COc1ccc(-c2noc(CN(C(=O)c3cc(OC)c(OC)cc3OC)C(C)C)n2)cc1,"inconclusive [inhibitor, single point]",
CCSC(=Nc1ccccc1)N1CCOCC1,inactive,
O=C(COc1ccc(C(=O)c2ccccc2)cc1)NCc1ccc(F)cc1,active: 0.92 µM,
COc1cc(C2C(C(=O)Nc3ccccc3)=C(C)Nc3nnnn32)cc(OC)c1OC (configuration not stated),inactive,

SMILES,Potency,"activity change, negative = growth inhibition"
COCCOc1ccc(C(F)(F)F)cc1NC(=O)COC(=O)c1cc([N+](=O)[O-])ccc1N1CCOCC1,active: 14.6 µM,
CC(C)CC(=O)OC(C)(C)[C@@H]1Cc2c(ccc3ccc(=O)oc23)O1,"inconclusive [inhibitor, single point]",
Cc1ccc(-n2c(=O)[nH]c3cc(C(=O)NC4CCN(Cc5ccccc5)CC4)ccc3c2=O)cc1,inactive,
COc1ccc(-c2noc(CSc3nc(N)cc(=O)[nH]3)n2)cc1OC,"inconclusive [inhibitor, single point]",
CCOC(=O)c1ccc(NC(=O)c2nc(SCc3ccccc3F)ncc2Cl)cc1,"inconclusive [inhibitor, single point]",
Nc1nonc1-n1nnc(C(=O)N/N=C/c2ccc(Cl)cc2Cl)c1CN1CCOCC1,inactive,
Cc1ccc(SCC(=O)Nc2ncc(C)s2)cc1,"inconclusive [inhibitor, single point]",
Cc1cccc(/C=C/c2onc(C)c2S(=O)(=O)N2CCC(C(=O)NC(C)(C)C)CC2)c1,"inconclusive [inhibitor, single point]",
CCCCOC(=O)c1ccc(Nc2nnc(-n3nc(C)cc3C)c3ccccc23)cc1,"inconclusive [inhibitor, single point]",
O=C(CC(O)(c1ccccc1)c1ccccc1)Nc1ccccn1,active: 14.6 µM,
CCn1c(CNC(=O)Cc2ccc(OC)cc2)nnc1SCCOc1ccccc1,"inconclusive [inhibitor, single point]",
CCCn1c2ccccc2c2cnn(CC(=O)NCCc3ccc(C)cc3)c(=O)c21,"inconclusive [inhibitor, single point]",
Cc1ccc(Cl)cc1NC(=O)C1CCN(c2nc3ccccc3n3cccc23)CC1,"inconclusive [inhibitor, single point]",
Cc1ccc(Cl)cc1N1CCN(C(=O)c2ccc(CS(=O)Cc3ccc(Cl)cc3)o2)CC1 (configuration not stated),active: 13 µM,
CCOc1ccc(NC(=O)CC2C(=O)N(c3ccc(OC)cc3)C(=S)N2Cc2ccccn2)cc1 (configuration not stated),inactive,
CCOc1ccc2nc(N3CCCC(C(=O)NCc4ccccc4OC)C3)sc2c1 (configuration not stated),"inconclusive [inhibitor, single point]",
COc1ccc(CCNc2oc(-c3ccccc3OC)nc2C#N)cc1,"inconclusive [inhibitor, single point]",
COc1ccc(-c2oc3c(c2C(=O)OCCO)C(OCCO)CCC3)cc1 (configuration not stated),"inconclusive [inhibitor, partial curve]",
Cc1cc(OCC(=O)N2CCN(c3ccc(F)cc3)CC2)c2c(C)cc(=O)oc2c1,inactive,
O=C(Oc1cc(-c2ccccc2)no1)c1ccc(Cl)cc1,"inconclusive [inhibitor, single point]",
NC(=S)N=Nc1ccc(NN=C(N)N)cc1,active: 2.99 µM and active: 1.3 µM,
